Measurements reported in the supplement of paper PMC4604168 (melanoma cell lines).
The other results are listed elsewhere or left out. Many values rest on one well or one pass, so single values are uncertain.

Test system: WM3619
Experiment: cell count relative to DMSO control; melanoma cells; higher = more viable cells
Settings: library dose: standard library concentration; 72 h
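Also: cells treated in 1,536-well plates, then fixed and DAPI-stained, with nuclei counted from automated high-throughput microscope images.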

Row | Compound | cell count [%]
1 | CC(C)(C)c1cnc(CSc2cnc(NC(=O)C3CCNCC3)s2)o1 + CN(C)S(=O)(=O)c1ccc2c(c1)/C(=C/c1cc3c([nH]1)CCCC3)C(=O)N2 [SU6656] (first compound 0.05 µM, partner dose 2 µM) | 77.1
2 | Cc1ccc(NC(=O)c2cccc(N(C)C)c2)cc1NC(=O)c1ccc(O)cc1 + Oc1cc(-c2nc(-c3ccccc3)[nH]c2-c2ccncc2)ccc1Cl [L779450] (first compound 10 µM, partner dose 1 µM) | 67.6
3 | NC(=O)c1ccc(N(C(N)=O)c2c(F)cccc2F)nc1-c1ccc(F)cc1F + COc1cc(Nc2ncc(F)c(Nc3ccc4c(n3)NC(=O)C(C)(C)O4)n2)cc(OC)c1OC [Tamatinib] (first compound 2 µM, partner dose 2 µM) | 68.1
4 | NC(=O)c1ccc(N(C(N)=O)c2c(F)cccc2F)nc1-c1ccc(F)cc1F + CCc1ccc(CCOc2ccc(CC3SC(=O)NC3=O)cc2)nc1 [pioglitazone] (first compound 2 µM, partner dose 10 µM) | 82.9
5 | CCCCCCCCc1ccc(CCC(N)(CO)CO)cc1 [fingolimod] + CO[C@@H]1[C@H](N(C)C(=O)c2ccccc2)C[C@H]2O[C@]1(C)n1c3ccccc3c3c4c(c5c6ccccc6n2c5c31)C(=O)NC4 [Midostaurin] (first compound 10 µM, partner dose 0.4 µM) | 3.22
6 | CCCCCCCCc1ccc(CCC(N)(CO)CO)cc1 [fingolimod] + COc1cc(N2CCC(N3CCN(C)CC3)CC2)ccc1Nc1ncc(Cl)c(Nc2ccccc2S(=O)(=O)C(C)C)n1 [NVP-TAE684] (first compound 10 µM, partner dose 0.4 µM) | 2.6
7 | Cc1ccc(NC(=O)c2cccc(N(C)C)c2)cc1NC(=O)c1ccc(O)cc1 + Cn1cncc1[C@@](N)(c1ccc(Cl)cc1)c1ccc2c(c1)c(-c1cccc(Cl)c1)cc(=O)n2C [tipifarnib] (first compound 10 µM, partner dose 0.05 µM) | 104
8 | CCCCCCCCc1ccc(CCC(N)(CO)CO)cc1 [fingolimod] + CN(NC(=O)CC(=O)NN(C)C(=S)c1ccccc1)C(=S)c1ccccc1 [STA4783] (first compound 10 µM, partner dose 0.03 µM) | 2.52
9 | CC(C)(C)c1cnc(CSc2cnc(NC(=O)C3CCNCC3)s2)o1 + COc1cc2ncnc(Nc3ccc(Oc4ccccc4)cc3)c2cc1OC [SrcI1] (first compound 0.05 µM, partner dose 10 µM) | 43.2
10 | CC(C)(C)c1cnc(CSc2cnc(NC(=O)C3CCNCC3)s2)o1 + O=S(=O)(c1ccccc1)N(CC(F)(F)F)c1ccc(C(O)(C(F)(F)F)C(F)(F)F)cc1 [T0901317] (first compound 0.05 µM, partner dose 7 µM) | 53.4
11 | NC(=O)c1ccc(N(C(N)=O)c2c(F)cccc2F)nc1-c1ccc(F)cc1F + CC(C)(C)c1cnc(CSc2cnc(NC(=O)C3CCNCC3)s2)o1 [SNS-032] (first compound 2 µM, partner dose 0.05 µM) | 102
12 | CC(C)(C)c1cnc(CSc2cnc(NC(=O)C3CCNCC3)s2)o1 + Cn1cncc1[C@@](N)(c1ccc(Cl)cc1)c1ccc2c(c1)c(-c1cccc(Cl)c1)cc(=O)n2C [tipifarnib] (first compound 0.05 µM, partner dose 0.05 µM) | 37.1
13 | CC(C)(C)c1cnc(CSc2cnc(NC(=O)C3CCNCC3)s2)o1 + O=C(Nc1cccc(Cl)c1)Nc1ncc(CCNc2ncnc3ccsc23)s1 [SNS314] (first compound 0.05 µM, partner dose 0.004 µM) | 89.3
14 | NC(=O)c1ccc(N(C(N)=O)c2c(F)cccc2F)nc1-c1ccc(F)cc1F + O=C(CCCCCCC(=O)Nc1ccccc1)NO [vorinostat] (first compound 2 µM, partner dose 0.4 µM) | 74.8
15 | Cc1ccc(NC(=O)c2cccc(N(C)C)c2)cc1NC(=O)c1ccc(O)cc1 + O=C(O)c1ccc(-c2c[nH]c3ncc(-c4ccccc4)cc23)cc1C1CCCC1 [GSK650394] (first compound 10 µM, partner dose 0.8 µM) | 86.5
16 | NC(=O)c1ccc(N(C(N)=O)c2c(F)cccc2F)nc1-c1ccc(F)cc1F + NCC(=O)Nc1ccc(-n2nc(C(F)(F)F)cc2-c2ccc3c(ccc4ccccc43)c2)cc1 [OSU03012] (first compound 2 µM, partner dose 5 µM) | 70.3
17 | COc1cc2c(Oc3ccc4[nH]c(C)cc4c3F)ncnc2cc1OCCCN1CCCC1 [cediranib] + O=c1cc(-c2cccc3c2Sc2ccccc2S3)oc(N2CCOCC2)c1 [KU55933] (first compound 2 µM, partner dose 5 µM) | 84.6

Row | Compound | cell count [%]
18 | NC(=O)c1ccc(N(C(N)=O)c2c(F)cccc2F)nc1-c1ccc(F)cc1F + Oc1nc(-c2ccc(C(F)(F)F)cc2)nc2c1CSCC2 [XAV939] (first compound 2 µM, partner dose 10 µM) | 116
19 | CCCCCCCCc1ccc(CCC(N)(CO)CO)cc1 [fingolimod] + COc1ccc(COc2ccc(Cc3cnc(N)nc3N)cc2OC)cc1 [GW2580] (first compound 10 µM, partner dose 5 µM) | 0.567
20 | COc1cc2c(Oc3ccc4[nH]c(C)cc4c3F)ncnc2cc1OCCCN1CCCC1 [cediranib] + c1cc(-c2cnn3cc(-c4ccc(OCCN5CCCCC5)cc4)cnc23)ccn1 [Dorsomorphin] (first compound 2 µM, partner dose 2 µM) | 77.2
21 | CCCCCCCCc1ccc(CCC(N)(CO)CO)cc1 [fingolimod] + O=c1cc(-c2cccc3c2Sc2ccccc2S3)oc(N2CCOCC2)c1 [KU55933] (first compound 10 µM, partner dose 5 µM) | 1.71
22 | NC(=O)c1ccc(N(C(N)=O)c2c(F)cccc2F)nc1-c1ccc(F)cc1F + C[C@@H]1CCN(C(=O)CC#N)C[C@@H]1N(C)c1ncnc2[nH]ccc12 [CP690550] (first compound 2 µM, partner dose 5 µM) | 110
23 | CCCCCCCCc1ccc(CCC(N)(CO)CO)cc1 [fingolimod] + Cn1cncc1[C@@](N)(c1ccc(Cl)cc1)c1ccc2c(c1)c(-c1cccc(Cl)c1)cc(=O)n2C [tipifarnib] (first compound 10 µM, partner dose 0.05 µM) | 6.24
24 | Cc1ccc(NC(=O)c2cccc(N(C)C)c2)cc1NC(=O)c1ccc(O)cc1 + CO[C@@H]1[C@H](N(C)C(=O)c2ccccc2)C[C@H]2O[C@]1(C)n1c3ccccc3c3c4c(c5c6ccccc6n2c5c31)C(=O)NC4 [Midostaurin] (first compound 10 µM, partner dose 0.4 µM) | 69.4
25 | NC(=O)c1ccc(N(C(N)=O)c2c(F)cccc2F)nc1-c1ccc(F)cc1F + COc1cc2c(Oc3ccc4[nH]c(C)cc4c3F)ncnc2cc1OCCCN1CCCC1 [cediranib] (first compound 2 µM, partner dose 2 µM) | 80
26 | CC(C)(C)c1cnc(CSc2cnc(NC(=O)C3CCNCC3)s2)o1 + O=C(O)c1ccc(-c2c[nH]c3ncc(-c4ccccc4)cc23)cc1C1CCCC1 [GSK650394] (first compound 0.05 µM, partner dose 0.8 µM) | 67.4
27 | CCCCCCCCc1ccc(CCC(N)(CO)CO)cc1 [fingolimod] + CN(c1ncccc1CNc1nc(Nc2ccc3c(c2)CC(=O)N3)ncc1C(F)(F)F)S(C)(=O)=O [PF562271] (first compound 10 µM, partner dose 0.4 µM) | 1.88
28 | NC(=O)c1ccc(N(C(N)=O)c2c(F)cccc2F)nc1-c1ccc(F)cc1F + CC(C)CCN1c2nc(Nc3cc(F)c(O)c(F)c3)ncc2N(C)C(=O)C1C [BID1870] (first compound 2 µM, partner dose 1 µM) | 83.9
29 | CC(C)(C)c1cnc(CSc2cnc(NC(=O)C3CCNCC3)s2)o1 + CN(NC(=O)CC(=O)NN(C)C(=S)c1ccccc1)C(=S)c1ccccc1 [STA4783] (first compound 0.05 µM, partner dose 0.03 µM) | 7.77
30 | CN(NC(=O)CC(=O)NN(C)C(=S)c1ccccc1)C(=S)c1ccccc1 + c1cc(-c2cnn3cc(-c4ccc(OCCN5CCCCC5)cc4)cnc23)ccn1 [Dorsomorphin] (first compound 0.03 µM, partner dose 2 µM) | 20.1
31 | Cc1ccc(NC(=O)c2cccc(N(C)C)c2)cc1NC(=O)c1ccc(O)cc1 + Oc1nc(-c2ccc(C(F)(F)F)cc2)nc2c1CSCC2 [XAV939] (first compound 10 µM, partner dose 10 µM) | 73.2
32 | CCc1ccc(CCOc2ccc(CC3SC(=O)NC3=O)cc2)nc1 (stereo not drawn) [pioglitazone] + O=C(O)C(=O)Nc1sc2c(c1C(=O)O)CCNC2 [TCS401] (first compound 10 µM, partner dose 8.33333 µM) | 92.5
33 | CC(C)(C)c1cnc(CSc2cnc(NC(=O)C3CCNCC3)s2)o1 + OCCn1cc(-c2cnc3nnn(Cc4ccc5ncccc5c4)c3n2)cn1 [PF04217903] (first compound 0.05 µM, partner dose 5 µM) | 56.7
